Laboratory results as given in PMC9911399, “Two distinct binding modes provide the RNA-binding protein RbFox with extraordinary sequence specificity”.
Substitutions are numbered along the chain they refer to; changes in the protein carry UniProt numbers. Some of the results follow.

T1: RBFOX1 RRM RbFoxmut (Fox-RRM*) (Homo sapiens, UniProt Q9NWB1 109-208, R118D;E147R;N151S;E152T)
T1 sequence: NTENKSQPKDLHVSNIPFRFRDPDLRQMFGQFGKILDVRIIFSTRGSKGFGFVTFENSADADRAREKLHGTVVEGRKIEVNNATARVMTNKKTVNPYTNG

B1: GCAAACG (DNA:RNA)
RNA: GGGAGACCGGAAUUCAGAUUGUCCGCAAACGUUAAAUCCCGUCGUAGCCACCA
DNA 1: CAATCTGAATTCCGGTCTCCC
DNA 2: TGGTGGCTACGACGGGATT
B2: CAUUUGU (DNA:RNA)
RNA: GGGAGACCGGAAUUCAGAUUGUCCCAUUUGUUUAAAUCCCGUCGUAGCCACCA
DNA 1: CAATCTGAATTCCGGTCTCCC
DNA 2: TGGTGGCTACGACGGGATT
B3: AUUCGCG (DNA:RNA)
RNA: B1 RNA with G25A, C26U, A27U, A28C, A29G
DNA 1: CAATCTGAATTCCGGTCTCCC
DNA 2: TGGTGGCTACGACGGGATT
B4: GCCUGCA (DNA:RNA)
RNA: B1 RNA with A27C, A28U, A29G, G31A
DNA 1: CAATCTGAATTCCGGTCTCCC
DNA 2: TGGTGGCTACGACGGGATT
B5: UUGCGUG (DNA:RNA)
RNA: B1 RNA with G25U, C26U, A27G, A28C, A29G, C30U
DNA 1: CAATCTGAATTCCGGTCTCCC
DNA 2: TGGTGGCTACGACGGGATT
B6: UUACACG (DNA:RNA)
RNA: B1 RNA with G25U, C26U, A28C
DNA 1: CAATCTGAATTCCGGTCTCCC
DNA 2: TGGTGGCTACGACGGGATT
B7: UAUACCG (DNA:RNA)
RNA: B1 RNA with G25U, C26A, A27U, A29C
DNA 1: CAATCTGAATTCCGGTCTCCC
DNA 2: TGGTGGCTACGACGGGATT
B8: GGGGAGG (DNA:RNA)
RNA: B1 RNA with C26G, A27G, A28G, C30G
DNA 1: CAATCTGAATTCCGGTCTCCC
DNA 2: TGGTGGCTACGACGGGATT
B9: UCCGGGU (DNA:RNA)
RNA: B2 RNA with C25U, A26C, U27C, U28G, U29G
DNA 1: CAATCTGAATTCCGGTCTCCC
DNA 2: TGGTGGCTACGACGGGATT
B10: UCUAGUG (DNA:RNA)
RNA: B1 RNA with G25U, A27U, A29G, C30U
DNA 1: CAATCTGAATTCCGGTCTCCC
DNA 2: TGGTGGCTACGACGGGATT
B11: GAUAUGC (DNA:RNA)
RNA: B2 RNA with C25G, U28A, U31C
DNA 1: CAATCTGAATTCCGGTCTCCC
DNA 2: TGGTGGCTACGACGGGATT
B12: UUCUAUG (DNA:RNA)
RNA: B1 RNA with G25U, C26U, A27C, A28U, C30U
DNA 1: CAATCTGAATTCCGGTCTCCC
DNA 2: TGGTGGCTACGACGGGATT
B13: UCCAAUU (DNA:RNA)
RNA: B1 RNA with G25U, A27C, C30U, G31U
DNA 1: CAATCTGAATTCCGGTCTCCC
DNA 2: TGGTGGCTACGACGGGATT
B14: CGUGCUA (DNA:RNA)
RNA: B2 RNA with A26G, U28G, U29C, G30U, U31A
DNA 1: CAATCTGAATTCCGGTCTCCC
DNA 2: TGGTGGCTACGACGGGATT
B15: AGUUAGC (DNA:RNA)
RNA: B2 RNA with C25A, A26G, U29A, U31C
DNA 1: CAATCTGAATTCCGGTCTCCC
DNA 2: TGGTGGCTACGACGGGATT
B16: GCCAAUG (DNA:RNA)
RNA: B1 RNA with A27C, C30U
DNA 1: CAATCTGAATTCCGGTCTCCC
DNA 2: TGGTGGCTACGACGGGATT
B17: GCGCCGU (DNA:RNA)
RNA: B2 RNA with C25G, A26C, U27G, U28C, U29C
DNA 1: CAATCTGAATTCCGGTCTCCC
DNA 2: TGGTGGCTACGACGGGATT
B18: UCCCCUU (DNA:RNA)
RNA: B2 RNA with C25U, A26C, U27C, U28C, U29C, G30U
DNA 1: CAATCTGAATTCCGGTCTCCC
DNA 2: TGGTGGCTACGACGGGATT
B19: CAACACA (DNA:RNA)
RNA: B1 RNA with G25C, C26A, A28C, G31A
DNA 1: CAATCTGAATTCCGGTCTCCC
DNA 2: TGGTGGCTACGACGGGATT
B20: CCCGGUG (DNA:RNA)
RNA: B1 RNA with G25C, A27C, A28G, A29G, C30U
DNA 1: CAATCTGAATTCCGGTCTCCC
DNA 2: TGGTGGCTACGACGGGATT
B21: UCAGUCA (DNA:RNA)
RNA: B1 RNA with G25U, A28G, A29U, G31A
DNA 1: CAATCTGAATTCCGGTCTCCC
DNA 2: TGGTGGCTACGACGGGATT
B22: CAUAGUG (DNA:RNA)
RNA: B2 RNA with U28A, U29G, G30U, U31G
DNA 1: CAATCTGAATTCCGGTCTCCC
DNA 2: TGGTGGCTACGACGGGATT
B23: CAAGCGU (DNA:RNA)
RNA: B2 RNA with U27A, U28G, U29C
DNA 1: CAATCTGAATTCCGGTCTCCC
DNA 2: TGGTGGCTACGACGGGATT
B24: UUAAUCA (DNA:RNA)
RNA: B1 RNA with G25U, C26U, A29U, G31A
DNA 1: CAATCTGAATTCCGGTCTCCC
DNA 2: TGGTGGCTACGACGGGATT
B25: CCCCGUA (DNA:RNA)
RNA: B2 RNA with A26C, U27C, U28C, U29G, G30U, U31A
DNA 1: CAATCTGAATTCCGGTCTCCC
DNA 2: TGGTGGCTACGACGGGATT
B26: UCUGGAA (DNA:RNA)
RNA: B2 RNA with C25U, A26C, U28G, U29G, G30A, U31A
DNA 1: CAATCTGAATTCCGGTCTCCC
DNA 2: TGGTGGCTACGACGGGATT
B27: AUAGUUA (DNA:RNA)
RNA: B2 RNA with C25A, A26U, U27A, U28G, G30U, U31A
DNA 1: CAATCTGAATTCCGGTCTCCC
DNA 2: TGGTGGCTACGACGGGATT
B28: GCGGUUG (DNA:RNA)
RNA: B1 RNA with A27G, A28G, A29U, C30U
DNA 1: CAATCTGAATTCCGGTCTCCC
DNA 2: TGGTGGCTACGACGGGATT
B29: CAGGCCC (DNA:RNA)
RNA: B2 RNA with U27G, U28G, U29C, G30C, U31C
DNA 1: CAATCTGAATTCCGGTCTCCC
DNA 2: TGGTGGCTACGACGGGATT
B30: GUGCCCU (DNA:RNA)
RNA: B1 RNA with C26U, A27G, A28C, A29C, G31U
DNA 1: CAATCTGAATTCCGGTCTCCC
DNA 2: TGGTGGCTACGACGGGATT
B31: CAUACCG (DNA:RNA)
RNA: B2 RNA with U28A, U29C, G30C, U31G
DNA 1: CAATCTGAATTCCGGTCTCCC
DNA 2: TGGTGGCTACGACGGGATT

What follows are binders tested against T1, RBFOX1 RRM RbFoxmut (Fox-RRM*) (assay: EMSA; HiTS-Eq, 1 nM pool, 10 min; buffer printed only for the single-RNA assays: 10 mM Tris pH 7.5, 150 mM NaCl, 3.4 mM EDTA, 0.001% NP-40, 30 C). Conditions: tags: His6 N-terminal (pET28a); label: 5' 32P.
Summary of the method: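 A pool of RNA with 7 randomized nucleotides, 5′-radiolabelled and with DNA-annealed flanks, was equilibrated at 1 nM for 10 min in 50 µL with purified RbFox RRM, wild type or mutant, across increasing protein concentrations. Free RNA was separated by 8% native PAGE, excised, reverse-transcribed, barcoded by PCR and sequenced. Relative association constants were obtained from read-count changes of each RNA species versus the control reaction and normalised to the cognate motif.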

Point of comparison: B27, binding signal 0.158 KA relative to UGCAUGU. Against it:
- B1 — lower, 0.0816 KA relative to UGCAUGU
- B2 — lower, 0.145 KA relative to UGCAUGU
- B3 — lower, 0.128 KA relative to UGCAUGU
- B4 — higher, 0.184 KA relative to UGCAUGU
- B5 — higher, 0.252 KA relative to UGCAUGU
- B6 — lower, 0.0815 KA relative to UGCAUGU
- B7 — lower, 0.0644 KA relative to UGCAUGU
- B8 — lower, 0.104 KA relative to UGCAUGU
- B9 — lower, 0.0588 KA relative to UGCAUGU
- B10 — lower, 0.114 KA relative to UGCAUGU
- B11 — lower, 0.12 KA relative to UGCAUGU
- B12 — lower, 0.136 KA relative to UGCAUGU
- B13 — lower, 0.0578 KA relative to UGCAUGU
- B14 — lower, 0.114 KA relative to UGCAUGU
- B15 — lower, 0.112 KA relative to UGCAUGU
- B16 — lower, 0.0766 KA relative to UGCAUGU
- B17 — lower, 0.0953 KA relative to UGCAUGU
- B18 — lower, 0.0629 KA relative to UGCAUGU
- B19 — lower, 0.117 KA relative to UGCAUGU
- B20 — lower, 0.112 KA relative to UGCAUGU
- B21 — lower, 0.0938 KA relative to UGCAUGU
- B22 — lower, 0.108 KA relative to UGCAUGU
- B23 — lower, 0.0877 KA relative to UGCAUGU
- B24 — lower, 0.093 KA relative to UGCAUGU
- B25 — lower, 0.116 KA relative to UGCAUGU
- B26 — lower, 0.0942 KA relative to UGCAUGU
- B28 — higher, 0.319 KA relative to UGCAUGU
- B29 — lower, 0.068 KA relative to UGCAUGU
- B30 — lower, 0.0594 KA relative to UGCAUGU
- B31 — lower, 0.127 KA relative to UGCAUGU
